Measured values: patent publication US12274759B2, “Affibody proteins specific for B7-H3 (CD276)” (THE BOARD OF TRUSTEES OF THE LELAND STANFORD JUNIOR …, priority 2018, dated 2025)
Where “and” joins values, the source holds several entries; their conditions need not be identical. Equal entries are not always repeated.

Key:
[1] = molecular target: T1, hB7-H3 on tumor vasculature (MS1hB7-H3 cells) (Homo sapiens, UniProt Q5ZPR3); assay: In vivo ultrasound molecular imaging of orthotopic MDA-MB-231 tumors co-implanted with MS1hB7-H3 cells in nude mice; conditions: Example 3, left flank tumors, 5×10^7 MB intravenously
T1 construct: expressed in transfected cells; host or cells: MS1 (MILE SVEN 1) mouse vascular endothelial cells, ATCC CRL2279
T1 sequence (Q5ZPR3 29-534): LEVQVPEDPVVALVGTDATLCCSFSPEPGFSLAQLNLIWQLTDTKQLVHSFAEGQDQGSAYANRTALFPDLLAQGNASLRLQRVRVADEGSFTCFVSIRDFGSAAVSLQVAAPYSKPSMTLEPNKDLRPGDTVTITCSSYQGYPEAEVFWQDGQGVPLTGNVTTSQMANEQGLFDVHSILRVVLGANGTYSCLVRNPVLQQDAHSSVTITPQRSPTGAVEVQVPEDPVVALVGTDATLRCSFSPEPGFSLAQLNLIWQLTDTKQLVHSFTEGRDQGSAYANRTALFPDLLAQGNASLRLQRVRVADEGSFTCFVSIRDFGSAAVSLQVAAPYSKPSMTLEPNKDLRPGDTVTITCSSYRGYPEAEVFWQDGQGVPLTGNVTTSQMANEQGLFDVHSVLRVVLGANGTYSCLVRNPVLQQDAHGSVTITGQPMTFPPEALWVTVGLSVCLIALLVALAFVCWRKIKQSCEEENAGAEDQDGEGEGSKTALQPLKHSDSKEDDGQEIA
Source text: (§1) Two mouse models of breast cancer. All experiments were approved by the Institutional Administrative Panel on Laboratory Animal Care. An orthotopic human breast cancer model with tumors from MDA-MB-231 cells stably expressing firefly luciferase (f-luc) reporter gene mixed in matrigel with either MS1WT or MS1hB7-H3 cells expressing renilla luciferase (r-luc) reporter gene was used for establishing tumors in the contralateral flanks of nude (nu/nu) mice (The Jackson Laboratory). Reporter expression details are provided in the supplemental document.
(§2) 1×10^6 MDA-MB-231/f-luc cells were mixed with 5×10^6 MS1/r-luc cells and implanted on the fourth mammary glands: MS1hB7-H3ir-luc cell mixture on the left flank and MSIWT/r-luc cell mixture on the right flank. Imaging was performed in the nude mice after two weeks of tumor cell engraftment with a mean size of 4 mm (range, 3-5 mm).
(§3) Ultrasound (US) molecular imaging. Contrast-enhanced US imaging was performed using a dedicated small-animal high resolution US imaging system (Veno 2100; VisualSonics). All mice were kept anesthetized with 2% isoflurane in room air at 2 L/min on a heated stage at 37° C. throughout the US molecular imaging sessions. […]

[2] = test system: MDA-MB-231 tumors with MS1WT cells; assay: In vivo ultrasound molecular imaging of orthotopic MDA-MB-231 tumors co-implanted with MS1WT cells in nude mice; set-up: species or system mouse; conditions: Example 3, right flank tumors, 5×10^7 MB intravenously
Source text: as §1, §2, §3

B1: MBABY-B7-H3: contrast microbubbles functionalized with ABYB7-H3 (biotinylated ABY on streptavidin-coated, lipid-shelled perfluorocarbon MB) (conjugate)
chain: AEAKYAKEKIFAVGEIYWLPNLTHGQIMAFIAALNDDPSQSSELLSEAKKLNDSQAPKHHHHHH
US molecular imaging signal in orthotopic tumors with MS1hB7-H3 cells [1]: 8.4±3.3 a.u.
US molecular imaging signal in orthotopic tumors with MS1WT cells [2]: 1.4±1.0 a.u. and 1.6±0.6 a.u.
